# Source: the supplement of paper PMC8728848
# The list shows a part of the results.
# B1: MpL2 (Macrolepiota procera) (protein)
# chain: MSTQVSSGQTYKITNVKAGTVIDLSGEDNKSIIGYPYHSGKNQQWTFNWTGKAWTLRSASSGSYLGIEGTPADGTRLVAVNDPFEWHIWRDEANENAFRIFVPFTNYNLRLSGYGDTTPGTPVQLWWTWEGLHQTWTIDRP
# Columns and labels:
# Test in all cases: glycan array binding signal (z-score within array); higher = stronger binding
# Settings in all cases: glycan notation: IUPAC condensed, linker removed; mutation: D109R
# [1] = target: GlcNAc(a1-6)Gal(b1-4)GlcNAc
# In short: (§1)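 Glycan array binding is given as a within-array Z-score, which can be read as non-binding when negative. The arrays, 3228 of them, came from the Consortium for Functional Glycomics database and were retained only where the protein sequence was available. Z-scores were averaged across arrays of the same protein sequence at different concentrations or buffers and across linkers.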
# [2] = target: GlcNAc(b1-2)Gal(b1-3)GalNAc
# In short: as §1
# [3] = target: GlcNAc(b1-2)Man(a1-3)[GlcNAc(b1-2)Man(a1-6)]Man(b1-4)GlcNAc(b1-4)GlcNAc
# In short: as §1
# [4] = target: GlcNAc(b1-2)Man(a1-3)[GlcNAc(b1-2)Man(a1-6)]Man(b1-4)GlcNAc(b1-4)[Fuc(a1-6)]GlcNAc
# In short: as §1
# [5] = target: GlcNAc(b1-2)Man(a1-3)[GlcNAc(b1-4)][GlcNAc(b1-2)Man(a1-6)]Man(b1-4)GlcNAc(b1-4)GlcNAc
# In short: as §1
# [6] = target: GlcNAc(b1-2)Man(a1-3)[GlcNAc(b1-4)][GlcNAc(b1-2)Man(a1-6)]Man(b1-4)GlcNAc(b1-4)[Fuc(a1-6)]GlcNAc
# In short: as §1
# [7] = target: GlcNAc(b1-2)[GlcNAc(b1-4)]Man(a1-3)[GlcNAc(b1-2)Man(a1-6)]Man(b1-4)GlcNAc(b1-4)GlcNAc
# In short: as §1
# [8] = target: GlcNAc(b1-2)[GlcNAc(b1-4)]Man(a1-3)[GlcNAc(b1-4)][GlcNAc(b1-2)Man(a1-6)]Man(b1-4)GlcNAc(b1-4)GlcNAc
# In short: as §1
# [9] = target: GlcNAc(b1-2)[GlcNAc(b1-4)]Man(a1-3)[GlcNAc(b1-4)][GlcNAc(b1-2)[GlcNAc(b1-6)]Man(a1-6)]Man(b1-4)GlcNAc(b1-4)GlcNAc
# In short: as §1
# [10] = target: GlcNAc(b1-2)[GlcNAc(b1-4)]Man(a1-3)[GlcNAc(b1-4)][GlcNAc(b1-2)[GlcNAc(b1-6)]Man(a1-6)]Man(b1-4)GlcNAc(b1-4)[Fuc(a1-6)]GlcNAc
# In short: as §1
# [11] = target: GlcNAc(b1-2)[GlcNAc(b1-6)]Man(a1-6)[GlcNAc(b1-2)Man(a1-3)]Man(b1-4)GlcNAc(b1-4)GlcNAc
# In short: as §1
# [12] = target: GlcNAc(b1-2)[GlcNAc(b1-6)]Man(a1-6)[GlcNAc(b1-2)Man(a1-3)]Man(b1-4)GlcNAc(b1-4)[Fuc(a1-6)]GlcNAc
# In short: as §1
# [13] = target: GlcNAc(b1-2)[GlcNAc(b1-6)]Man(a1-6)[GlcNAc(b1-4)][GlcNAc(b1-2)Man(a1-3)]Man(b1-4)GlcNAc(b1-4)GlcNAc
# In short: as §1
# GlcNAc(b1-3)Fuc = target: GlcNAc(b1-3)Fuc
# In short: as §1
# GlcNAc(b1-3)Gal = target: GlcNAc(b1-3)Gal
# In short: as §1
# [14] = target: GlcNAc(b1-3)Gal(b1-3)GalNAc
# In short: as §1
# GlcNAc(b1-3)Gal(b1-4)Glc = target: GlcNAc(b1-3)Gal(b1-4)Glc
# In short: as §1
# [15] = target: GlcNAc(b1-3)Gal(b1-4)GlcNAc
# In short: as §1
# [16] = target: GlcNAc(b1-3)Gal(b1-4)GlcNAc(b1-2)Man(a1-3)[GlcNAc(b1-3)Gal(b1-4)GlcNAc(b1-2)Man(a1-6)]Man(b1-4)GlcNAc(b1-4)GlcNAc
# In short: as §1
# [17] = target: GlcNAc(b1-3)Gal(b1-4)GlcNAc(b1-2)Man(a1-3)[GlcNAc(b1-3)Gal(b1-4)GlcNAc(b1-2)Man(a1-6)]Man(b1-4)GlcNAc(b1-4)[Fuc(a1-6)]GlcNAc
# In short: as §1
# [18] = target: GlcNAc(b1-3)Gal(b1-4)GlcNAc(b1-2)[GlcNAc(b1-3)Gal(b1-4)GlcNAc(b1-6)]Man(a1-6)[GlcNAc(b1-3)Gal(b1-4)GlcNAc(b1-2)Man(a1-3)]Man(b1-4)GlcNAc(b1-4)GlcNAc
# In short: as §1
# [19] = target: GlcNAc(b1-3)Gal(b1-4)GlcNAc(b1-3)Gal(b1-4)GlcNAc
# In short: as §1
# [20] = target: GlcNAc(b1-3)Gal(b1-4)GlcNAc(b1-3)Gal(b1-4)GlcNAc(b1-2)Man(a1-3)[GlcNAc(b1-3)Gal(b1-4)GlcNAc(b1-3)Gal(b1-4)GlcNAc(b1-2)Man(a1-6)]Man(b1-4)GlcNAc(b1-4)GlcNAc
# In short: as §1
# [21] = target: GlcNAc(b1-3)Gal(b1-4)GlcNAc(b1-3)Gal(b1-4)GlcNAc(b1-2)Man(a1-3)[GlcNAc(b1-3)Gal(b1-4)GlcNAc(b1-3)Gal(b1-4)GlcNAc(b1-2)Man(a1-6)]Man(b1-4)GlcNAc(b1-4)[Fuc(a1-6)]GlcNAc
# In short: as §1
# [22] = target: GlcNAc(b1-3)Gal(b1-4)GlcNAc(b1-3)Gal(b1-4)GlcNAc(b1-2)[GlcNAc(b1-3)Gal(b1-4)GlcNAc(b1-3)Gal(b1-4)GlcNAc(b1-6)]Man(a1-6)[GlcNAc(b1-3)Gal(b1-4)GlcNAc(b1-3)Gal(b1-4)GlcNAc(b1-2)Man(a1-3)]Man(b1-4)GlcNAc(b1-4)[Fuc(a1-6)]GlcNAc
# In short: as §1
# [23] = target: GlcNAc(b1-3)Gal(b1-4)GlcNAc(b1-3)Gal(b1-4)GlcNAc(b1-3)Gal(b1-4)GlcNAc(b1-2)Man(a1-3)[GlcNAc(b1-3)Gal(b1-4)GlcNAc(b1-3)Gal(b1-4)GlcNAc(b1-3)Gal(b1-4)GlcNAc(b1-2)Man(a1-6)]Man(b1-4)GlcNAc(b1-4)GlcNAc
# In short: as §1
# [24] = target: GlcNAc(b1-3)Gal(b1-4)GlcNAc(b1-3)Gal(b1-4)GlcNAc(b1-3)Gal(b1-4)GlcNAc(b1-2)Man(a1-3)[GlcNAc(b1-3)Gal(b1-4)GlcNAc(b1-3)Gal(b1-4)GlcNAc(b1-3)Gal(b1-4)GlcNAc(b1-2)Man(a1-6)]Man(b1-4)GlcNAc(b1-4)[Fuc(a1-6)]GlcNAc
# In short: as §1
# [25] = target: GlcNAc(b1-3)Gal(b1-4)GlcNAc(b1-3)Gal(b1-4)GlcNAc(b1-3)Gal(b1-4)GlcNAc(b1-2)[GlcNAc(b1-3)Gal(b1-4)GlcNAc(b1-3)Gal(b1-4)GlcNAc(b1-3)Gal(b1-4)GlcNAc(b1-6)]Man(a1-6)[GlcNAc(b1-3)Gal(b1-4)GlcNAc(b1-3)Gal(b1-4)GlcNAc(b1-3)Gal(b1-4)GlcNAc(b1-2)Man(a1-3)]Man(b1-4)GlcNAc(b1-4)[Fuc(a1-6)]GlcNAc
# In short: as §1
# [26] = target: GlcNAc(b1-3)Gal(b1-4)GlcNAc(b1-3)Gal(b1-4)GlcNAc(b1-3)Gal(b1-4)GlcNAc(b1-3)Gal(b1-4)GlcNAc(b1-2)Man(a1-3)[GlcNAc(b1-3)Gal(b1-4)GlcNAc(b1-3)Gal(b1-4)GlcNAc(b1-3)Gal(b1-4)GlcNAc(b1-3)Gal(b1-4)GlcNAc(b1-2)Man(a1-6)]Man(b1-4)GlcNAc(b1-4)GlcNAc
# In short: as §1
# [27] = target: GlcNAc(b1-3)Gal(b1-4)GlcNAc(b1-3)Gal(b1-4)GlcNAc(b1-3)Gal(b1-4)GlcNAc(b1-3)Gal(b1-4)GlcNAc(b1-2)Man(a1-3)[GlcNAc(b1-3)Gal(b1-4)GlcNAc(b1-3)Gal(b1-4)GlcNAc(b1-3)Gal(b1-4)GlcNAc(b1-3)Gal(b1-4)GlcNAc(b1-2)Man(a1-6)]Man(b1-4)GlcNAc(b1-4)[Fuc(a1-6)]GlcNAc
# In short: as §1
# [28] = target: GlcNAc(b1-3)Gal(b1-4)GlcNAc(b1-3)Gal(b1-4)GlcNAc(b1-3)Gal(b1-4)GlcNAc(b1-3)Gal(b1-4)GlcNAc(b1-2)[GlcNAc(b1-3)Gal(b1-4)GlcNAc(b1-3)Gal(b1-4)GlcNAc(b1-3)Gal(b1-4)GlcNAc(b1-3)Gal(b1-4)GlcNAc(b1-6)]Man(a1-6)[GlcNAc(b1-3)Gal(b1-4)GlcNAc(b1-3)Gal(b1-4)GlcNAc(b1-3)Gal(b1-4)GlcNAc(b1-3)Gal(b1-4)GlcNAc(b1-2)Man(a1-3)]Man(b1-4)GlcNAc(b1-4)[Fuc(a1-6)]GlcNAc
# In short: as §1
# [29] = target: GlcNAc(b1-3)Gal(b1-4)GlcNAc(b1-3)Gal(b1-4)GlcNAc(b1-3)GalNAc
# In short: as §1
# [30] = target: GlcNAc(b1-3)Gal(b1-4)GlcNAc(b1-3)GalNAc
# In short: as §1
# [31] = target: GlcNAc(b1-3)Gal(b1-4)GlcNAc(b1-3)[GlcNAc(b1-3)Gal(b1-4)GlcNAc(b1-3)]GalNAc
# In short: as §1
# [32] = target: GlcNAc(b1-3)Gal(b1-4)GlcNAc(b1-6)[Gal(b1-3)]GalNAc
# In short: as §1
# [33] = target: GlcNAc(b1-3)Gal(b1-4)GlcNAc(b1-6)[GlcNAc(b1-3)Gal(b1-3)]GalNAc
# In short: as §1
# [34] = target: GlcNAc(b1-3)Gal(b1-4)GlcNAc(b1-6)[GlcNAc(b1-3)]Gal(b1-4)GlcNAc
# In short: as §1
# GlcNAc(b1-3)GalNAc = target: GlcNAc(b1-3)GalNAc
# In short: as §1
# GlcNAc(b1-3)Man = target: GlcNAc(b1-3)Man
# In short: as §1
# [35] = target: GlcNAc(b1-3)[GlcNAc(b1-4)][GlcNAc(b1-6)]GlcNAc
# In short: as §1
# [36] = target: GlcNAc(b1-3)[GlcNAc(b1-6)]Gal(b1-4)GlcNAc
# In short: as §1
# [37] = target: GlcNAc(b1-3)[GlcNAc(b1-6)]GalNAc
# In short: as §1
# [38] = target: GlcNAc(b1-4)Gal(b1-4)GlcNAc
# In short: as §1
# GlcNAc(b1-4)GlcNAc = target: GlcNAc(b1-4)GlcNAc
# In short: as §1
# [39] = target: GlcNAc(b1-4)GlcNAc(b1-4)GlcNAc
# In short: as §1
binder,measurement,setting,value
B1,glycan array binding signal (z-score),[1],6.07
same,glycan array binding signal (z-score),[2],-0.265
same,glycan array binding signal (z-score),[3],-0.258
same,glycan array binding signal (z-score),[4],-0.212
same,glycan array binding signal (z-score),[5],-0.259
same,glycan array binding signal (z-score),[6],-0.263
same,glycan array binding signal (z-score),[7],-0.263
same,glycan array binding signal (z-score),[8],-0.255
same,glycan array binding signal (z-score),[9],-0.26
same,glycan array binding signal (z-score),[10],-0.263
same,glycan array binding signal (z-score),[11],-0.259
same,glycan array binding signal (z-score),[12],-0.183
same,glycan array binding signal (z-score),[13],-0.27
same,glycan array binding signal (z-score),GlcNAc(b1-3)Fuc,-0.236
same,glycan array binding signal (z-score),GlcNAc(b1-3)Gal,-0.271
same,glycan array binding signal (z-score),[14],-0.247
same,glycan array binding signal (z-score),GlcNAc(b1-3)Gal(b1-4)Glc,-0.238
same,glycan array binding signal (z-score),[15],-0.257
same,glycan array binding signal (z-score),[16],-0.223
same,glycan array binding signal (z-score),[17],-0.206
same,glycan array binding signal (z-score),[18],-0.184
same,glycan array binding signal (z-score),[19],-0.252
same,glycan array binding signal (z-score),[20],-0.109
same,glycan array binding signal (z-score),[21],-0.171
same,glycan array binding signal (z-score),[22],-0.214
same,glycan array binding signal (z-score),[23],-0.239
same,glycan array binding signal (z-score),[24],-0.184
same,glycan array binding signal (z-score),[25],-0.199
same,glycan array binding signal (z-score),[26],-0.233
same,glycan array binding signal (z-score),[27],-0.229
same,glycan array binding signal (z-score),[28],-0.197
same,glycan array binding signal (z-score),[29],-0.238
same,glycan array binding signal (z-score),[30],-0.238
same,glycan array binding signal (z-score),[31],-0.25
same,glycan array binding signal (z-score),[32],-0.258
same,glycan array binding signal (z-score),[33],-0.256
same,glycan array binding signal (z-score),[34],-0.269
same,glycan array binding signal (z-score),GlcNAc(b1-3)GalNAc,-0.271
same,glycan array binding signal (z-score),GlcNAc(b1-3)Man,-0.258
same,glycan array binding signal (z-score),[35],-0.271
same,glycan array binding signal (z-score),[36],-0.252
same,glycan array binding signal (z-score),[37],-0.268
same,glycan array binding signal (z-score),[38],-0.208
same,glycan array binding signal (z-score),GlcNAc(b1-4)GlcNAc,-0.248
same,glycan array binding signal (z-score),[39],-0.248
